Test results reported in PubChem BioAssay AID463254 (National Center for Advancing Translational Sciences (NCATS), 2010).
The campaign covered roughly 330,000 compounds. About 40 (0.01%) were called active. This list was built around the results that the source calls inconclusive (neither active nor inactive); the mix of calls is not that of the screen. The call rests on the fitted dose curve; in most records, active means well fitted inhibition curve with a large enough effect; inconclusive means small, poorly fitted or top-dose-only effect, or effect the other way; inactive means flat fitted curve, though single readings scatter. Potencies beside an inconclusive call are fits to weak or partial responses and may not hold up.

Molecular target: Ubiquitin carboxyl-terminal hydrolase 2 (Homo sapiens) (UniProt O75604)
UniProt O75604, sequence (O75604 whole entry, looked up): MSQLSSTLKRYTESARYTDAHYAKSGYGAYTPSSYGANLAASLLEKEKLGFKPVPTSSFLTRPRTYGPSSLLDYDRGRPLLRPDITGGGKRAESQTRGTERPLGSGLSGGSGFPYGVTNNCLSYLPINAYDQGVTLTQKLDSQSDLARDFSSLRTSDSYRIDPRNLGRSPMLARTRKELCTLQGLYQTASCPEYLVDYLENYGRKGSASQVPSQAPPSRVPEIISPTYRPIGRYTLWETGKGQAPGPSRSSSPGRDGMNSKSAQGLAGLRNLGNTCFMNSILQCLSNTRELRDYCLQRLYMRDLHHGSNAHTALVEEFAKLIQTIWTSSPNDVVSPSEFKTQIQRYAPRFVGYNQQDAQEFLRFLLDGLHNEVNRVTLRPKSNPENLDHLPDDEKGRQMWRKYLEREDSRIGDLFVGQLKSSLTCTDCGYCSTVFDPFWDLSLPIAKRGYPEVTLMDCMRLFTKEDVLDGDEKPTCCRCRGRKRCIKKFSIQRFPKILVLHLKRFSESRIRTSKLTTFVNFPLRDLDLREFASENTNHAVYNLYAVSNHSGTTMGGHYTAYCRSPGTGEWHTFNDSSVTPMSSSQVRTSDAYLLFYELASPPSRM
Test: qHTS Assay for Inhibitors of Ubiquitin-specific Protease USP2a Using CHOP2 as the Reporter
Details: USP2 core, Ub-CHOP2 coupled fluorogenic reporter, 485/531; series mostly up to 38.3 µM
How it was run: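 USP2 core (10nM final) preincubated 30min RT with compound in 20mM Tris-HCl pH 8.0, 2mM CaCl2, 2mM beta-mercaptoethanol, 0.05% CHAPS; 25nM Ub-CHOP2 plus 25nM reporter substrate added, fluorescence (Ex485/Em531) read after 60min.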
Potency means the concentration at half of the fitted maximal effect; tags describe the fitted curve by direction and shape or compound fluorescence and quenching.

**Q.** For `COC(=O)c1c(NC(=O)CC2Nc3cc(C)c(C)cc3NC2=O)sc(C)c1C` (centres undefined), which Potency is on record?
**A.** inconclusive: 14.1 µM [fluorescent, single point]

**Q.** For `O=C(NCCc1ccccc1)c1cnc(Cl)c(Cl)c1`, which Potency is on record?
**A.** inactive

**Q.** Which Potency does the source give for `O=c1c2c3nc4ccccc4nc3n(-c3ccc4c(c3)OCCO4)c2ncn1CC1CCCO1` (centres undefined) here?
**A.** inconclusive: 20 µM [falling, single point]

**Q.** How did the Potency turn out when `O=C(CN1CCC(O)CC1)N1c2ccccc2C=Cc2ccccc21` was run?
**A.** active: 10 µM

**Q.** With `CSc1nc(SC(C)C(=O)O)c2c3c(sc2n1)COC(C)(C)C3` (centres undefined) as the molecule, how does the Potency read?
**A.** inactive

**Q.** With `COC(=O)c1[nH]c2ccccc2c1NC(=O)CN1CCCc2ccccc21` as the molecule, how does the Potency read?
**A.** inconclusive: 22.4 µM [falling, single point]

**Q.** For `Cn1c2ccccc2c2nnc(SC3CCOC3=O)nc21` (centres undefined), which Potency is on record?
**A.** inconclusive: 2.82 µM [falling, single point]

**Q.** With `CC(CN1CCCCC1)OC(=O)c1ccc(Cl)cc1` (centres undefined) as the molecule, how does the Potency read?
**A.** inconclusive: 20 µM [falling, single point]

**Q.** `CC(C)(C)NC(=O)C(c1ccco1)N(C(=O)c1ccc(CN2CCOCC2)o1)c1ccccc1` (centres undefined) was tested. Which Potency did it give?
**A.** inconclusive: 20 µM [falling, single point]

**Q.** How did the Potency turn out when `N#Cc1ccc(-c2cccnc2)nc1SCC(=O)c1ccccc1` was run?
**A.** inconclusive: 12.6 µM [fluorescent, partial curve]

**Q.** How did the Potency turn out when `CCCCOC1(c2ccccc2)NC(=S)NN=C1c1ccccc1` (centres undefined) was run?
**A.** inconclusive: 5.01 µM [falling, single point]

**Q.** `CCOc1ccc(NC(=O)/C(C#N)=C/c2ccc(N3CCCC3)c(C)c2)cc1` was tested. Which Potency did it give?
**A.** inconclusive: 28.2 µM [fluorescent, single point]

**Q.** With `Cc1cc(C)c(S(=O)(=O)/N=C2\C=CC(=O)C(Cl)=C2)c(C)c1` as the molecule, how does the Potency read?
**A.** inconclusive: 28.2 µM [falling, single point]

**Q.** `Cc1ccc(-c2c(C#N)c(N)nc3c2CCCCC3)o1` was tested. Which Potency did it give?
**A.** inconclusive: 3.16 µM [falling, single point]

**Q.** How did the Potency turn out when `O=C(NCCc1c[nH]c2ccccc12)C1CCC(=O)N(CCc2cccc(F)c2)C1` (centres undefined) was run?
**A.** inactive

**Q.** For `CO[C@H]1[C@@H]2C=CO[C@@H](O[C@H]3O[C@@H](CO)[C@H](O)[C@@H](O)[C@@H]3O)[C@@H]2[C@@]2(CO)O[C@@H]12`, which Potency is on record?
**A.** inactive

**Q.** Which Potency does the source give for `CCOC(=O)CC1C(=O)NCCN1c1nc2c(C)cccn2c(=O)c1/C=C1\SC(=S)N(C(C)CC)C1=O` (centres undefined) here?
**A.** inconclusive: 11.2 µM [fluorescent, partial curve]

**Q.** How did the Potency turn out when `COc1ccc(C2C(C#N)=C(N)N(c3cccnc3)C3=C2C(=O)CC(C)(C)C3)cc1OC` (centres undefined) was run?
**A.** inactive

**Q.** With `Cc1ccc(CNC(=S)Nc2cc(C(=O)O)ccc2C)cc1` as the molecule, how does the Potency read?
**A.** inactive

**Q.** With `N#C/C(=C\c1ccc(C(=O)O)cc1)c1ccccn1` as the molecule, how does the Potency read?
**A.** inactive

**Q.** Which Potency does the source give for `O=C(Nc1cccc(-c2cnc3ccccc3n2)c1)c1ccco1` here?
**A.** inactive

**Q.** `Nc1ccccc1S(=O)(=O)NC1=NCCCCC1` was tested. Which Potency did it give?
**A.** inconclusive: 28.2 µM [falling, single point]

**Q.** With `O=C(Nc1ccncc1)c1ccc(S(=O)(=O)Nc2ccccc2)cc1` as the molecule, how does the Potency read?
**A.** inconclusive: 11.2 µM [falling, single point]

**Q.** For `O=C1CC(=O)N(Cc2ccco2)C(=S)N1`, which Potency is on record?
**A.** inconclusive: 20 µM [falling, single point]

**Q.** With `CCc1cc2cccc(C)c2nc1SCC(=O)N1CCN(C(=O)c2ccco2)CC1` as the molecule, how does the Potency read?
**A.** inconclusive: 4.47 µM [falling, single point]

**Q.** `CC(=O)Nc1ccc(N2C(=O)c3cccc4c(O)ccc(c34)C2=O)cc1` was tested. Which Potency did it give?
**A.** inconclusive: 11.2 µM [fluorescent, partial curve]

**Q.** How did the Potency turn out when `O=C(Nc1cccc(S(=O)(=O)NC2=NCCC2)c1)c1cc(-c2ccco2)nc2ccccc12` was run?
**A.** inconclusive: 28.2 µM [falling, single point]

**Q.** Which Potency does the source give for `CCc1nnc(NC(=O)CSc2ccc(-c3ccc(C)cc3)nn2)s1` here?
**A.** inactive

**Q.** `CC(C)n1c(O)c(N=Nc2ccc(Cl)nn2)c2ccccc21` was tested. Which Potency did it give?
**A.** inconclusive: 12.6 µM [fluorescent, single point]

**Q.** Which Potency does the source give for `CN1C(=O)c2cccc3c(N)ccc(c23)C1=O` here?
**A.** inconclusive: 10 µM [fluorescent, partial curve]

**Q.** `C#CCOCCOCCOCCNc1nc(N2CCN(C(=O)CCCCCCCCCCNC(=O)[C@H](CCCCN)n3cc(CCCC(=O)O)nn3)CC2)nc(N2CCN(C(=O)CCCCCCCCCCNC(=O)[C@H](CCCN=C(N)N)n3cc(C[C@@H](C)CC)nn3)CC2)n1` was tested. Which Potency did it give?
**A.** inconclusive: 28.2 µM [falling, single point]

**Q.** `CCNC(=O)c1sccc1-n1cccc1` was tested. Which Potency did it give?
**A.** inactive

**Q.** For `O=C1c2ccccc2C(=O)N1CCCCn1c(=O)oc2ccccc21`, which Potency is on record?
**A.** inconclusive: 28.2 µM [falling, single point]

**Q.** `CCOc1ccccc1C(=O)Nc1nnc(C(C)C)s1` was tested. Which Potency did it give?
**A.** inconclusive: 28.2 µM [falling, single point]

**Q.** With `Cc1ccc(S(=O)(=O)N2C(=O)C(c3ccccc3)SC2=Nc2ccccc2)cc1` (centres undefined) as the molecule, how does the Potency read?
**A.** inactive

**Q.** For `OCCN(Cc1ccccc1)c1ncnc2sccc12`, which Potency is on record?
**A.** inconclusive: 20 µM [falling, single point]

**Q.** For `Cc1ccc(Nc2cc(C)nn2-c2nc(C)cc(=O)[nH]2)cc1`, which Potency is on record?
**A.** inactive

**Q.** With `CN1C2CCC1/C(=C/c1cccn1C)C(=O)/C2=C\c1cccn1C` as the molecule, how does the Potency read?
**A.** inconclusive: 11.2 µM [fluorescent, partial curve]

**Q.** `Cc1c(NC(=O)c2ccc(COc3ccc4ccccc4c3)o2)c(=O)n(-c2ccccc2)n1C` was tested. Which Potency did it give?
**A.** inconclusive: 28.2 µM [falling, single point]

**Q.** Which Potency does the source give for `Cc1cc(N2CCOCC2)nc2ccc(NC(=O)CCC(=O)N3CCC(C)CC3)cc12` here?
**A.** inactive

**Q.** How did the Potency turn out when `CC(C)CC(c1nnnn1CC1CCCO1)N1CCN(c2nc3ccccc3s2)CC1` (centres undefined) was run?
**A.** inconclusive: 28.2 µM [falling, single point]

**Q.** Which Potency does the source give for `CCOC(=O)CCCNC(=O)COC(=O)c1cccc(C)c1O` here?
**A.** inconclusive: 22.4 µM [falling, single point]

**Q.** With `Cc1cc(C(=O)COc2cccc3cccnc23)c(C)n1C` as the molecule, how does the Potency read?
**A.** inconclusive: 12.6 µM [fluorescent, partial curve]

**Q.** For `CCCc1cc(C(N)=O)c(NC(=O)c2ccco2)s1`, which Potency is on record?
**A.** inactive

**Q.** `N#CC(C(=O)OC1CCCCC1)c1nc2ccccc2nc1N1CCOCC1` (centres undefined) was tested. Which Potency did it give?
**A.** inconclusive: 10 µM [fluorescent, partial curve]

**Q.** For `CCOC(=O)CN1C(=O)S/C(=C/c2ccc(O)c([N+](=O)[O-])c2)C1=O`, which Potency is on record?
**A.** inconclusive: 5.01 µM [falling, single point]

**Q.** `Cc1cc(C)n2nc(S(=O)(=O)NCCc3ccccc3)nc2n1` was tested. Which Potency did it give?
**A.** inconclusive: 22.4 µM [falling, single point]

**Q.** For `CCCC(=O)Nc1ccc(N2CCN(C(=O)c3cc4ccccc4o3)CC2)cc1`, which Potency is on record?
**A.** inconclusive: 14.1 µM [falling, single point]

**Q.** How did the Potency turn out when `CCN(CC)c1ccc(/C=C(/C#N)C(=O)NCc2ccccc2)o1` was run?
**A.** inconclusive: 11.2 µM [fluorescent, single point]

**Q.** For `COc1ccc(N=Nc2nc3ccc(Br)cc3n2C)cc1`, which Potency is on record?
**A.** inconclusive: 3.16 µM [fluorescent, full curve]

**Q.** For `O=C1CCC/C(=N/NC(=O)c2sc3ccccc3c2Cl)C1`, which Potency is on record?
**A.** inconclusive: 12.6 µM [fluorescent, partial curve]

**Q.** How did the Potency turn out when `CCOC(=O)CSc1nnc(-c2ccco2)n1-c1ccccc1` was run?
**A.** inconclusive: 5.01 µM [fluorescent, single point]

**Q.** `O=C(NCc1nnnn1-c1ccc(F)cc1)c1ccc([N+](=O)[O-])o1` was tested. Which Potency did it give?
**A.** inactive

**Q.** With `O=C1CC(c2ccc(O)c(O)c2)Oc2cc(O)cc(O)c21` (centres undefined) as the molecule, how does the Potency read?
**A.** inactive

**Q.** Which Potency does the source give for `COCc1cc(C)nc(SCC(=O)N2CCC(C)CC2)c1C#N` here?
**A.** inactive

**Q.** For `COc1ccc(-c2nc(NC(=O)c3ccccc3)sc2-c2ccc([N+](=O)[O-])cc2)cc1`, which Potency is on record?
**A.** inconclusive: 28.2 µM [fluorescent, single point]

**Q.** How did the Potency turn out when `Cc1ccc([C@@H]2CC=C(C(=O)O)[C@H](c3cccc(Cl)c3)N2S(=O)(=O)c2ccc(C)cc2)cc1` was run?
**A.** inconclusive: 28.2 µM [falling, single point]

**Q.** How did the Potency turn out when `O=[N+]([O-])c1ccc(Sc2nnnn2-c2ccccc2)c(Cl)c1` was run?
**A.** inconclusive: 28.2 µM [falling, single point]

**Q.** With `O=C(O)c1ccc(N/C(=N\S(=O)(=O)c2ccc(Cl)cc2)c2ccccc2)cc1` as the molecule, how does the Potency read?
**A.** inactive

**Q.** For `O=C(N/N=C\c1c(O)ccc2ccccc12)c1cncc(Br)c1`, which Potency is on record?
**A.** inconclusive: 11.2 µM [fluorescent, partial curve]

**Q.** For `O=C(O)/C=C/c1nc(-c2ccccc2)n2ccccc12`, which Potency is on record?
**A.** inactive

**Q.** Which Potency does the source give for `Nc1nc(N)nc(-c2ccccn2)n1` here?
**A.** inactive

**Q.** With `O=C1CSC(c2nn(-c3ccccc3)cc2-c2cc3ccccc3oc2=O)N1Cc1ccco1` (centres undefined) as the molecule, how does the Potency read?
**A.** inactive

**Q.** Which Potency does the source give for `CC1(C)CC(=O)C=C(NCc2cccs2)C1` here?
**A.** inconclusive: 28.2 µM [falling, single point]

**Q.** With `CCC(=O)Oc1ccc2c(c1)O/C(=C\c1ccco1)C2=O` as the molecule, how does the Potency read?
**A.** inconclusive: 11.2 µM [fluorescent, partial curve]

**Q.** How did the Potency turn out when `COc1cc2c(C(=O)N3CCN(c4cccc(Cl)c4)CC3)cn(CC(C)C)c(=O)c2cc1OC` was run?
**A.** inconclusive: 28.2 µM [falling, single point]

**Q.** For `CC(=O)c1ccc(NC(=O)c2ccc3nc(-c4ccco4)c(-c4ccco4)nc3c2)cc1`, which Potency is on record?
**A.** inconclusive: 22.4 µM [falling, single point]

**Q.** Which Potency does the source give for `O=C(CSc1ncccc1-c1nc2ccccc2[nH]1)Nc1ccc2c(c1)OCCO2` here?
**A.** inconclusive: 3.55 µM [falling, single point]

**Q.** For `O=C1CC(Nc2ccc(N3CCOCC3)cc2)C(=O)N1c1cccc(C(F)(F)F)c1` (centres undefined), which Potency is on record?
**A.** inconclusive: 28.2 µM [falling, single point]
